Reference: publication PMC4336329 (PLoS ONE, 2015)
Out of some 310,000 compounds screened, about 2,200 (0.71%) showed an effect of 50% or more. Effects have a minus sign here. Some of the results follow.

The compounds below were run against human ether-à-go-go-related gene (hERG) potassium channel (human, UniProt Q12809) (assay: primary screen, population patch clamp on CHO cells stably expressing hERG).
human ether-à-go-go-related gene (hERG) potassium channel, sequence (Q12809 whole entry, looked up): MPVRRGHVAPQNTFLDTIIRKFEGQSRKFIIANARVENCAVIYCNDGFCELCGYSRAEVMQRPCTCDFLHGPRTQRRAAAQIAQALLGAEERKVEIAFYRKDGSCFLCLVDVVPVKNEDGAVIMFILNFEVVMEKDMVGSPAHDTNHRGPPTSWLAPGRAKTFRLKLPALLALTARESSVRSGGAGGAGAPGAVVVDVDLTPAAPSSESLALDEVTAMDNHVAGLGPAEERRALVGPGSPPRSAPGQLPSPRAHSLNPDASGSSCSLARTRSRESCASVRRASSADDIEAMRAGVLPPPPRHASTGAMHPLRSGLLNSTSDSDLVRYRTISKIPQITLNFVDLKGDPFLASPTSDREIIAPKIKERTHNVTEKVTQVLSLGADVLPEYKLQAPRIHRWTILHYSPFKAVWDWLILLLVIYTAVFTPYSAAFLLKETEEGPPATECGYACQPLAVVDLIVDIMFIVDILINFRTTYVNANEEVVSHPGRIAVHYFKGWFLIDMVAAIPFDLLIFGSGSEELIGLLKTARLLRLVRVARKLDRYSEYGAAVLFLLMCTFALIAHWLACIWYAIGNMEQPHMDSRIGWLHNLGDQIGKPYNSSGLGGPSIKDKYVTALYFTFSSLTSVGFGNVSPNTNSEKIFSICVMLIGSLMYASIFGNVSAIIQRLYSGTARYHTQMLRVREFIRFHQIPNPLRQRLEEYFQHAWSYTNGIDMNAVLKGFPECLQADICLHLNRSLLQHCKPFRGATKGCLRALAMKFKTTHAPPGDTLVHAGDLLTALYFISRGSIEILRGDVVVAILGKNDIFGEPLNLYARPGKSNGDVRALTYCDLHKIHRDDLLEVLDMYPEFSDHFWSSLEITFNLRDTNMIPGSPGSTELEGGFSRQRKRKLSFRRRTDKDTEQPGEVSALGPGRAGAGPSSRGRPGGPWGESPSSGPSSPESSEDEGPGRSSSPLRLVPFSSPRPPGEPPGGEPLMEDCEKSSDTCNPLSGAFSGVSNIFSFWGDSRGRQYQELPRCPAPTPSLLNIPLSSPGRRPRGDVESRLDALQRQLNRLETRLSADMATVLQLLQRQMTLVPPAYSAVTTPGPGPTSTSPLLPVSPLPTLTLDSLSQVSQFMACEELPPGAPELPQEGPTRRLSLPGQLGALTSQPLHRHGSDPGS

| SMILES | hERG current change (%, negative = inhibition) at 1uM [%] |
| --- | --- |
| C#CCOCCOCCOCCNc1nc(N2CCN(C(=O)CCCCCCCCCCNC(=O)[C@H](CCCCN)n3cc(CCCC(=O)O)nn3)CC2)nc(N2CCN(C(=O)CCCCCCCCCCNC(=O)[C@H](CCCCN)n3cc(CCCC(=O)O)nn3)CC2)n1 | 9.07 |
| O=C(CSc1ccccn1)N1CCN(S(=O)(=O)c2ccc(Cl)cc2)CC1 | -0.585 |
| Cc1nnc(NC(=O)c2ccc(S(=O)(=O)N3CCCCC3C)cc2)o1 (stereo not shown) | 10.8 |
| COc1cc(Cl)ccc1OCc1cc(C(=O)N(C)C2CC(C)(C)NC(C)(C)C2)no1 | 14 |
| C=CCCc1ccc(C#N)c(SCc2c(C(=O)OCC)c3cc(OC(C)=O)c(Br)cc3n2C)n1 | 3.3 |
| CCOc1ccc(NC(=S)N(Cc2ccc(Cl)cc2)Cc2ccco2)cc1 | 10.1 |
| O=C(Nc1cc(Cl)ccc1O)c1snnc1-c1ccccc1 | 10.8 |
| CCN(CC(=O)Nc1ccc(NC(C)=O)cc1)C(=O)CCCc1nc2ccccc2s1 | 21.6 |
| CC(=O)C1=C(c2cccc([N+](=O)[O-])c2)N(C(C)=O)n2c(C)nnc2S1 | 1.05 |
| CCCOc1ccc(-c2c(C(=O)N/N=C/c3ccc(OCC)cc3)nnn2-c2nonc2N)cc1 | 12.3 |
| Cc1ccccc1C(=O)NC(C(N)=O)P(=O)(OC(C)C)OC(C)C (stereo not shown) | -24.8 |
| C[C@@H](NC(=O)c1[nH]cnc1C(=O)Nc1ccc(Cl)cc1)c1ccccc1 | 19.9 |
| CN(C)C(CNc1ccc(C(F)(F)F)cn1)c1ccccc1 (stereo not shown) | 7.51 |
| O=C(COC(=O)CC12CC3CC(CC(C3)C1)C2)Nc1cccnc1Cl | 1.93 |
| O=C(NCCCN1CCC(Cc2ccccc2)CC1)C1CC(=O)N(C2CCCCCC2)C1 (stereo not shown) | -29.9 |
| O=C(Cn1nnc(-c2ccc(N3CCOCC3)cc2)n1)N1CCOCC1 | -2.69 |
| COc1ccc(Cc2nnc(NC(=O)Nc3ccc(C)cc3)s2)cc1OC | 13.5 |
| CCN(CC)S(=O)(=O)c1ccc(NS(=O)(=O)c2ccc(C)c(C)c2)cc1 | -3.41 |
| CC(NC(=O)/C=C/c1cnc2ccccc2n1)C12CC3CC(CC(C3)C1)C2 (stereo not shown) | 4.27 |
| CN(C)CCCn1c2c(c(SCC(=O)Nc3ccc4c(c3)OCCO4)nc1=O)CCC2 | 4.13 |
| O=P1(Oc2ccccc2)C[C@@H](O)[C@@H](O)[C@H](COCc2ccccc2)O1 (stereo partly shown) | 7.07 |
| COc1ccc(F)cc1C(=O)C1CCCN(Cc2c(C)n(C)n(-c3ccccc3)c2=O)C1 (stereo not shown) | -0.866 |

| SMILES | hERG current change (%, negative = inhibition) at 1uM [%] |
| --- | --- |
| C/C(=N\NC(=O)C1COc2ccccc2O1)c1ccc(Cl)s1 (stereo not shown) | 18.1 |
| Cc1cccc(-n2c(C)cc(C)c(C#N)c2=O)c1 | 6.14 |
| Cc1c(NC(=O)c2ccc(F)c(S(=O)(=O)N3CCOCC3)c2)c(=O)n(-c2ccccc2)n1C | 8.58 |
| O=C(CCNC(=O)c1ccc(Cl)cc1)Nc1ccccc1N1CCCCC1 | 7.8 |
| CC(NCc1ccc(S(N)(=O)=O)cc1)C(=O)Nc1ccc([N+](=O)[O-])cc1Cl (stereo not shown) | -6.93 |
| COc1ccccc1-c1nnc(SCC(=O)NC2CC2)n1C | -12 |
| COc1ccccc1CCC(=O)Nc1cc(S(=O)(=O)N2CCCCC2)ccc1N1CCN(C)CC1 | 7.81 |
| CCCC(=O)NC(C)c1nc2ccccc2n1CC (stereo not shown) | 5.95 |
| Cc1sc2nc(SCC(=O)N3CCOCC3)[nH]c(=O)c2c1C | 12.8 |
| CCOc1ccc(N(CC(=O)NCc2ccc(C)cc2)S(=O)(=O)c2c(C)[nH]c(=O)[nH]c2=O)cc1 | 11.8 |
| COc1cccc(NC(=O)COC(=O)C2CC(=O)N(c3ccc(C)cc3)C2)c1 (stereo not shown) | 6.44 |
| O=C(c1n[nH]c2ccccc12)N1CCN(S(=O)(=O)c2ccccc2)CC1 | 3.18 |
| CC(C)Cc1ccc(CN2CCCC(NC(=O)CCN3CCOCC3)C2)cc1 (stereo not shown) | 4.74 |
| CCc1ccccc1Nc1nc2ccccc2n1CC | 19 |
| CCOc1ccc2nc(N(CCCN(C)C)C(=O)c3ccc(C(=O)c4ccccc4)cc3)sc2c1.Cl | 5.4 |
| O=C(CN1CCOCC1)Nc1c(C(=O)C2CC2)oc2ccccc12 | 9.86 |
| COc1cccc(/C=C/C(=O)OCC(=O)NCC2CCCO2)c1 (stereo not shown) | 11.6 |
| Cc1ccc(NC(=Nc2ccc(Br)cc2)N2CCOCC2)cc1C | -1.01 |
| Cc1ccc(NC(=O)c2ccc(NCCCN3CCOCC3)c([N+](=O)[O-])c2)cc1Cl | 8.15 |
| Clc1cccc(C2NCCc3[nH]cnc32)c1 (stereo not shown) | 0.0369 |
| O=c1cc(O)c2c(=O)n(C3CCCCC3)c3ccccc3c2o1 | 10.4 |
| COC(=O)c1c(NC(=O)c2ccoc2C)sc2c1CCC2 | 7.4 |

| SMILES | hERG current change (%, negative = inhibition) at 1uM [%] |
| --- | --- |
| CC(=O)c1ccc(N(C(=O)CNC(=O)c2ccco2)C(C(=O)NC2CCCC2)c2ccc(C)o2)cc1 (stereo not shown) | -1.35 |
| Cn1c(=O)[nH]c(=O)c2c1nc(CN1CCN(Cc3ccccc3)CC1)n2CC(N)=O | 6.48 |
| COc1ccc(O)c(/C=N/N2CCOCC2)c1 | 18.1 |
| CN(CCOc1ccc(C=C2C(=O)NC(=O)NC2=O)cc1)c1ccccn1 | 12.5 |
| CC(C)/C(=N/Nc1ccccc1[N+](=O)[O-])c1ccccc1 | 22.6 |
| CCOC(=O)C1=NOC(CN(c2ccccc2)S(=O)(=O)c2ccc(Cl)cc2)C1 (stereo not shown) | 1.84 |
| CCc1ccc(NC(=O)c2n[nH]c(=O)c3ccccc23)cc1 | 11.4 |
| CCN1C(=O)/C(=C/C=C2/CCCN2C)OC1=S | 5.94 |
| Nc1cc2ccncc2c2ccccc12 | 4.55 |
| CCc1cc(C(=O)N(CC)CC(=O)Nc2ccc(OC)cc2)sc1C | 5.23 |
| Cc1cc(S(=O)(=O)Nc2c(C(=O)O)[nH]c3ccccc23)ccc1F | 6.88 |
| COC(=O)c1ccccc1NC(=O)c1cccc(NC(=O)C(C)C)c1 | 12.1 |
| Cn1c(CSCc2ccc(Cl)cc2)nnc1SCC(=O)Nc1nc2ccccc2s1 | 12.5 |
| CCCN1CCN(CCCNC(=S)Nc2ccc(F)cc2)CC1 | 6.17 |
| CCN(CC)S(=O)(=O)c1ccc(C)c(NC(=O)CSc2nc3ccccc3[nH]2)c1 | 5.26 |
| CCN(CC)c1ccc(C2C(C(=O)OCCOC(C)C)=C(C)NC3=C2C(=O)CCC3)cc1 (stereo not shown) | 4.21 |
| CCCC(=O)Nc1cc(C(=O)O)ccc1S(=O)(=O)c1ccc(C)cc1 | 9.45 |
| CC(Sc1nnc(C2CC2)n1C1CC1)C(=O)NC1(C#N)CCCCC1 (stereo not shown) | 1.84 |
| COc1ccc(CCNC(=O)c2ccc(Cl)c(S(=O)(=O)N3CCCC3)c2)cc1 | -4.63 |
| O=C(NC(=S)Nc1ccc(Cl)cn1)c1cccs1 | 12.7 |
| CCOc1c2ccc(C(=O)NCc3ccc(OC(F)(F)F)cc3)cc2nn1CC | 3.49 |
| O=C1N/C(=C/c2cccs2)C(=O)N1Cc1ccccc1F | 4.52 |

| SMILES | hERG current change (%, negative = inhibition) at 1uM [%] |
| --- | --- |
| O=C(Nc1ccc2oc(-c3ccccc3F)nc2c1)c1ccc([N+](=O)[O-])o1 | 12.6 |
| COc1ccc(CCNC(=O)c2ccc(OCc3c(C)noc3C)cc2)cc1OC | 5.91 |
| O=C(Cc1ccccc1)Nc1cccc(C(=O)N/N=C/c2ccco2)c1 | 5.46 |
| COc1cc(C(C)=O)ccc1OCC(O)CN1CCN(S(=O)(=O)c2ccccc2)CC1 (stereo not shown) | 1.54 |
| COc1ccc(C(CNC(=O)C2CCN(S(=O)(=O)c3ccc(F)cc3)CC2)N(C)C)cc1 (stereo not shown) | 7.61 |
| CCOC(=O)C1C(C)=C(Nc2ccc(OC)cc2)C(=O)N1c1ccc(OC)cc1 (stereo not shown) | 11.5 |
| CC(=O)N1CCN=C1SCc1cccc(F)c1 | 16.4 |
| CCOC(=O)c1cccc(NC(=O)C2CCN(c3ncnc4c3nc3n4CCCCC3)CC2)c1 | 19.7 |
| COP(=O)(OC)C(Nc1cc(Cl)cc(Cl)c1)c1cccc(O)c1 (stereo not shown) | 10.6 |
| O=C(CSc1nnc(CN2CCOCC2)n1-c1ccccc1)Nc1ccc(Cl)cc1 | -4.14 |
| C=CCn1c(O)c(CN2CCCCC2)c(C)c(C#N)c1=O | 9.51 |
| CC(=O)c1ccc(N2Cc3ccccc3C2=NC(=O)c2cccs2)cc1 | 0.895 |
| CCOc1ccc(-n2c(SCC(=O)Nc3ccccc3C)n[nH]c2=O)cc1 | 13 |
| CCOC(=O)c1c(O)c2cc(Cl)ccc2n(CC)c1=O | 10.8 |
| CC(C)(C)C1CCc2c(sc(NC(=O)CSc3ncn[nH]3)c2C#N)C1 (stereo not shown) | 11.7 |
| CCc1ccc(CN(C)C(=O)CCc2nc3ccccc3n(-c3ccc(OC)cc3)c2=O)cc1 | 5.88 |
| CC(NC(=O)C1CCCCC1)C(=O)NC1=NCCS1 (stereo not shown) | -0.523 |
| CCCC(=O)NC(c1ccco1)c1cc([N+](=O)[O-])c2cccnc2c1O (stereo not shown) | 9.23 |
| Cc1cc(OCC(=O)NCC(O)c2ccccc2)c2c(C)c(C)c(=O)oc2c1 (stereo not shown) | 16.6 |
